Measurements taken from the RNAGym collection of RNA variant scans (doi:10.7554/elife.90254).
Read counts are not given, so values of variants with three or more changes are uncertain.

B1: OR4K15 (parent)
chain: GUUAACGGUCAUAGGCCAUGGAAACUAGGAGCACCAUUUCGCUGCCAGUGAAGAAAUGAACAAAGAAAAUCUGGGCCAGGCAGGCAUCAAAAGAAAUAGUCUUGCGCUCAACCAGAAAGUCUGUAAUCAUUUUAAGGGUA

Variants of: B1
Experiment: self-cleavage, relative activity (ratio to wild type); higher = more cleavage; in vitro, sequencing; the parent is a self-cleaving ribozyme

| Variant | self-cleavage |
| --- | --- |
| A30G A59G A111G | 0 |
| G29A A63U C71U G106U | 0.05 |
| A30G U43C C81U U131G | 0.2 |
| A27G U72C A90U C107U | 0.04 |
| A27G C81U U102C U103C U139C | 0.07 |
| A30G A111G U133A | 0.02 |
| G28A A54U A96G U108C A126U | 0 |
| A30G G41A U70C A82U | 0.37 |
| A27G U37C U39A U49C A69G A90G | 0.96 |
| A30G U38G C76U | 0.17 |
| A30G A33U U72A U102A A117G | 0.16 |
| A27G A56G A86U A89G A126G | 1.35 |
| A27G A51G A89G A92C | 1.37 |
| A30G A60G U139A | 1.68 |
| A27G A33G A55C A69C | 0.63 |
| A27U A55G U100C A140G | 2.27 |
| G29A A59G U103C | 0.49 |
| A30G A63G A117C | 0.78 |
| A30G U108C U127C | 0 |
| A30G U72A U103C U139C | 0.19 |
| A27G A33G A94G | 1.22 |

| Variant | self-cleavage |
| --- | --- |
| A30G A54U G74A A86G U87C | 0.17 |
| A30U A47G G119A A135C | 0.75 |
| A30G U97A A116G | 0.35 |
| A27U C40A U127C | 1.26 |
| A30G A82U A90G | 0.21 |
| A27G A30G U38C U39C A78C | 0.35 |
| A30G U49C A60G | 1.58 |
| G28A A98G A111U U127C | 0.01 |
| A30G U39C A89U U120A | 1.77 |
| A27G A118G G119U | 1.12 |
| A30G A36C A54G A63G | 0.66 |
| A30G A67G C85U U87C | 0.87 |
| A27G A62U U132C | 1.27 |
| A27G A30U A51G U108C | 0.04 |
| A30U A52G A111G | 0.03 |
| A30G U49G U70C | 0.65 |
| A30G U100C A114G U132C | 0.77 |
| A30G U38C A114G | 0.27 |
| A27G A30U C40U A90G | 0.64 |
| A27G A60G A66G A94G A95G | 0.99 |
| A30G U43A A90G U122C | 1.04 |

| Variant | self-cleavage |
| --- | --- |
| A30G A52G U57C A116G | 0.56 |
| A30G U100C A117G | 2.88 |
| A30G A51G A54G A66G | 0.44 |
| A30G A55G U122C | 0.88 |
| A30G A62U A95G | 1.69 |
| A30G A69G A82G A110G U139C | 0.07 |
| A30G C40A A96G | 1.2 |
| A30G A96G A116G | 0.42 |
| A30G A47G U49C U103C | 0.51 |
| U26C U70A U130C | 0.63 |
| A30G A52G A86G | 1.73 |
| U26G U43C G137A | 1.18 |
| A30G G31A U38C A96G U102A | 0.37 |
| A30G U43C A51G A78U A118G | 0.24 |
| A30G U39C G106A C113U | 0 |
| U26C U43A A56G U108C | 0.02 |
| A30G A67G U100C U108A | 0.02 |
| A30G A47G U49C A51G | 0.65 |
| A27G U37C U43A A116G | 1.24 |
| A30G U87C A96U A118G | 0.38 |
| A30U A33U U124C | 1.31 |

| Variant | self-cleavage |
| --- | --- |
| A30G G31C U38A U49A U70C U120A | 0.52 |
| G28A A82G A110C A111G | 0.01 |
| G28A U37C G58U | 1.28 |
| U26C U37C U133C A134U | 1.79 |
| A27U A59G U100C U132C | 1.65 |
| A30G A89G U120C U124C | 0.29 |
| A30G U37A A63G A64U | 1.46 |
| U26C U100C U108C | 0 |
| A30G A59G U139A | 1.63 |
| A30U A56G U133C | 2.11 |
| A27G U57C A62G | 1.47 |
| A30G A47G A95G U97A | 0.81 |
| A30G U43C A96G | 1.14 |
| A30G A117G U127C | 0.73 |
| A30G U39C A91G | 1.06 |
| A30G A63G A68G A116U | 0.19 |
| A27U G50A U108C | 0.02 |
| A27G U43C A47G U70C | 0.14 |
| A27C U43A A78G | 0.6 |
| A27G A94U A114G | 0.37 |
